Laboratory results reported in the supplement of paper PMC3334620.
The full ranking holds about 33,000 sequences; the median of “E-score (-0.5 to 0.5)” is about -0.016, and the highest 2% start at about 0.31. The list shows a part of the results.

Biological target: Cst6 (UniProt P40535)
Experiment: PBM E-score (8-mer binding enrichment) (E-score (-0.5 to 0.5)); higher = stronger / more preferred TF binding; most listed sequences are background and not binding sites
Conditions: protein concentration: 200 nM; construct: GST-DNA-binding domain
Outline: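 Yeast transcription factors, full-length or as DNA-binding domains, were expressed with a GST tag using PURExpress in vitro transcription/translation. At about 100-200 nM they were applied to universal all-10-mer Agilent arrays, double-stranded by primer extension on fresh or once-stripped slides. Fluorescent anti-GST detected bound protein, and masliner normalised the scans. E-scores for ungapped eight-base words, pooled with reverse complements, came from the Universal PBM Analysis Suite.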

Point of comparison: CTAGGGGC, “PBM E-score” value -0.36. Against it:
- CGCAACCC — higher, -0.0121
- CTAGACTA — higher, -0.103
- GCCAGTAC — higher, -0.157
- CTTAAACA — higher, 0.0866
- GACTGGAC — higher, -0.317
- CTTTAGTC — higher, -0.128
- ATGCCGCG — higher, 0.233
- GAGGTAGA — higher, -0.298
- CGAATGCC — higher, -0.165
- CCTCATCG — higher, 0.00595
- CTTCAGAC — higher, -0.169
- CTATGTTA — higher, 0.147
- CCGTTTAC — higher, 0.126
- CATGTACA — higher, -0.0419
- GATTAGAA — higher, -0.0374
- CTCGCATC — higher, 0.00499
- AGCATGAA — higher, -0.00465
- ATGACCTC — higher, 0.349
- AATGGTCT — higher, 0.0149
- ACTCAGCG — higher, -0.254
- GGGCAAGA — higher, -0.0867
- CACGGCTC — higher, 0.29
- GCGTACAA — higher, 0.0167
- ACTATGCG — higher, 0.00713
- CCTCGTTA — higher, -0.0548
- GCGGCTTA — higher, 0.00291
- GTCAAATA — higher, 0.265
- CTTATATA — higher, 0.3
- CGCACTTC — higher, -0.0168
- AAATTACA — higher, 0.244
- GAGTAGGA — higher, -0.248
- CAACTAGA — higher, 0.135
- AAGATATC — higher, 0.0499
- CTATTTGC — higher, -0.0426
- GTAGCCAC — higher, -0.179
- GATGATGA — higher, 0.319
- AAGATTTG — higher, 0.133
- CAACGTCC — higher, -0.263
- AAGATTGT — higher, 0.112
- ATTACTCC — higher, 0.12
- AGGGGAAA — higher, -0.192
- AACTGCGC — higher, -0.0655
- CCGTGACG — higher, 0.417
- AATTGGCG — higher, 0.198
- GGTCTAAC — higher, -0.171
- ACCACACG — higher, 0.111
- GCCTGGTA — higher, -0.162
- CATGGAGG — higher, -0.123
- CTAGCGCC — higher, -0.05
- TCGATTAA — higher, 0.244
- AGTGCGCC — higher, 0.0364
- CGGCTATA — higher, 0.212
- AACCCCTT — higher, -0.124
- CTCCAAAA — higher, -0.108
- CAAGCACC — higher, -0.316
- CTTACCTA — higher, -0.0278
- GACTCGAC — higher, -0.212
- GCCGAGAA — higher, 0.00254
- AGTTTCTA — higher, 0.0891
- CTTTCAGC — higher, -0.0281
- ACGCATCC — higher, -0.219
- CCTTTTGA — higher, 0.104
- CAGCGTGG — higher, -0.212
- ATTTGGTC — higher, 0.187
- ACATAACC — higher, 0.136
- AACCAACT — higher, 0.00494
- GTAGAGAC — higher, -0.104
- CACTACCA — higher, 0.0321
- AAGTGTGC — higher, 0.053
- GCTGTTAC — higher, -0.0708
- CTCTCGAC — higher, -0.157
- GCGATTCA — higher, 0.0151
- AGCTGATC — higher, 0.0363
- AGCATAAT — higher, 0.162
- GCCCTCTA — higher, -0.19
- AAAACATG — higher, 0.114
- CAGTTACA — higher, 0.185
- ACGCTCAG — higher, -0.0046
- GCAGGGCA — higher, -0.101
- GCAAGAGC — higher, -0.0213
- CACATCCG — higher, 0.0768
- GAATCCCC — lower, -0.387
- ACTCAGTC — higher, -0.134
- GCCAGTCA — higher, -0.229
- CGATGACG — higher, 0.48
- CCGATCTC — higher, -0.145
- CGGTACAG — higher, 0.00748
- CGGTTAAG — higher, -0.0846
- AAGGACCT — higher, -0.189
- AGTGAATC — higher, -0.0279
- TAGTGGCA — higher, -0.0931
- AAAGGCAG — higher, 0.0112
- CAACGATC — higher, -0.192
- TCAACGGA — higher, 0.0866
- ATCATCGA — higher, 0.183
- TACGCAAA — higher, 0.0712
- ATAGAACG — higher, 0.233
- AGTCGAGA — higher, 0.0557
- AATTAGAC — higher, 0.14
- ATGACTAG — higher, 0.0824
- AGGAGCGA — higher, -0.214
- ATTGGTCA — higher, -0.00277
- ATCCGGCA — higher, -0.205
- CGACGGGA — higher, -0.0959
- AGTAGTAA — higher, 0.0733
- AGATATCG — higher, -0.0891
- AGGGACCG — higher, -0.257
- CACTGTGA — higher, 0.0309
- CTCTTGAA — higher, 0.094
- ATTTATCG — higher, 0.166
- CGAGTGCC — higher, -0.0708
- AACAAGGA — higher, 0.204
- GGAGCTCC — lower, -0.411
- CCTGGGCG — higher, -0.098
- ACCGTTAA — higher, 0.0495
- GAGTTTGA — higher, 0.056
- ACGGAAAC — higher, -0.00568
- ACCTGGCC — higher, -0.19
- CATATACG — higher, 0.198
- CGTTCATA — higher, 0.172
- CAACCTGA — higher, 0.0578
- CACGATAA — higher, 0.181
- CATGCCGC — higher, 0.298
- GGTCGGCA — higher, -0.249
- ACATCTTC — higher, 0.123
- AAGAGGCT — higher, -0.06
- GATCGCGC — higher, 0.126
- TCCCTAGA — higher, -0.0752
- GAACCCCA — higher, -0.209
- CGACTAAC — higher, -0.0525
- ATACAACC — higher, 0.139
- ACCGATGA — higher, 0.115
- CCCATTCA — higher, 0.0468
- ACTTGAAA — higher, 0.037
- AGGTTGTG — higher, -0.0321
- ATGGCCGC — higher, -0.0515
- CACGTAGA — higher, 0.0233
- CGTTTGGC — higher, -0.0433
- CCGGGTCA — higher, -0.179
- CACATTTA — higher, 0.194
- CAGAAAGA — higher, 0.0969
- TGAAATCA — higher, 0.322
- GCATACTA — higher, -0.117
- CCTACCAG — higher, -0.356
- CCTAGCTA — higher, -0.162
- TGTCGACA — higher, 0.0356
- AGGTGAAG — higher, -0.0272
- GTACATAA — higher, 0.085
- GCCGCCCC — higher, 0.0285
- ACTGCAGC — higher, -0.119
- ATCGGCAA — higher, 0.0254
- ACCGCCAC — higher, -0.0442
- AAGGAATT — higher, -0.00504
- AAAGAGTC — higher, -0.228
- AAGTGTCT — higher, -0.0487
- ATTTACAG — higher, 0.0459
- ACAGATTC — higher, 0.0985
- GCACCGCA — higher, -0.0676
- GCGATCCA — higher, 0.00124
- AGACGCCA — higher, -0.108
- TACCTTCA — higher, 0.013
- CCAGCCAG — higher, -0.309
- AGATATTA — higher, 0.123
- CATGATCA — higher, 0.231
- TAAGAGTA — higher, 0.0451
- CTGCATTA — higher, -0.0341
- CCAGAGGC — higher, -0.24
- GGACTGGA — higher, -0.296
- AGGCTATA — higher, -0.0813
- CCGCTTAA — higher, 0.132
- ACCTGGGG — higher, -0.289
